# This is one part of the list.
# B1: Banana lectin (Musa acuminata) (protein)
# chain: MNGAIKVGAWGGNGGSAFDMGPAYRIISVKIFSGDVVDAVDVTFTYYGKTETRHFGGSGGTPHEIVLQEGEYLVGMKGEFGNYHGVVVVGKLGFSTNKKSYGPFGNTGGTPFSLPIAAGKISGFFGRGGDFIDAIGVYLEP
# Columns and labels:
# Assay in all cases: glycan array binding signal (z-score within array); higher = stronger binding
# Settings in all cases: glycan notation: IUPAC condensed, linker removed
# [1] = molecular target: Neu5Ac(a2-6)Gal(b1-4)GlcNAc(b1-3)Gal(b1-4)GlcNAc(b1-3)Gal(b1-4)GlcNAc(b1-2)Man(a1-3)[Neu5Ac(a2-6)Gal(b1-4)GlcNAc(b1-3)Gal(b1-4)GlcNAc(b1-3)Gal(b1-4)GlcNAc(b1-2)Man(a1-6)]GalNAc
# In short: (§1)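 From the Consortium for Functional Glycomics database, 3228 arrays were curated, keeping only those whose protein sequence was available. Binding is given as a within-array Z-score averaged across arrays sharing a protein sequence and across linkers. Negative Z-scores can be read as non-binding.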
# [2] = molecular target: Neu5Ac(a2-6)Gal(b1-4)GlcNAc(b1-3)Gal(b1-4)GlcNAc(b1-3)GalNAc
# In short: as §1
# [3] = molecular target: Neu5Ac(a2-6)Gal(b1-4)GlcNAc(b1-3)Gal(b1-4)GlcNAc(b1-3)[Neu5Ac(a2-6)Gal(b1-4)GlcNAc(b1-3)Gal(b1-4)GlcNAc(b1-6)]GalNAc
# In short: as §1
# [4] = molecular target: Neu5Ac(a2-6)Gal(b1-4)GlcNAc(b1-3)Gal(b1-4)GlcNAc(b1-6)[Gal(b1-3)]GalNAc
# In short: as §1
# [5] = molecular target: Neu5Ac(a2-6)Gal(b1-4)GlcNAc(b1-3)Gal(b1-4)[Fuc(a1-3)]GlcNAc(b1-3)Gal(b1-4)[Fuc(a1-3)]GlcNAc
# In short: as §1
# [6] = molecular target: Neu5Ac(a2-6)Gal(b1-4)GlcNAc(b1-3)GalNAc
# In short: as §1
# [7] = molecular target: Neu5Ac(a2-6)Gal(b1-4)GlcNAc(b1-3)[Neu5Ac(a2-6)Gal(b1-4)GlcNAc(b1-6)]GalNAc
# In short: as §1
# [8] = molecular target: Neu5Ac(a2-6)Gal(b1-4)GlcNAc(b1-6)GalNAc
# In short: as §1
# [9] = molecular target: Neu5Ac(a2-6)Gal(b1-4)GlcNAc(b1-6)[Gal(b1-3)GlcNAc(b1-3)]Gal(b1-4)Glc
# In short: as §1
# [10] = molecular target: Neu5Ac(a2-6)Gal(b1-4)GlcNAc(b1-6)[Gal(b1-3)]GalNAc
# In short: as §1
# [11] = molecular target: Neu5Ac(a2-6)Gal(b1-4)GlcNAc6S
# In short: as §1
# Neu5Ac(a2-6)GalNAc = molecular target: Neu5Ac(a2-6)GalNAc
# In short: as §1
# [12] = molecular target: Neu5Ac(a2-6)GalNAc(b1-4)GlcNAc
# In short: as §1
# [13] = molecular target: Neu5Ac(a2-6)GalNAc(b1-4)GlcNAc6S
# In short: as §1
# [14] = molecular target: Neu5Ac(a2-6)GlcNAc(b1-4)GlcNAc
# In short: as §1
# [15] = molecular target: Neu5Ac(a2-6)GlcNAc(b1-4)GlcNAc(b1-4)GlcNAc
# In short: as §1
# Neu5Ac(a2-8)Neu5Ac = molecular target: Neu5Ac(a2-8)Neu5Ac
# In short: as §1
# [16] = molecular target: Neu5Ac(a2-8)Neu5Ac(a2-3)Gal(b1-3)GalNAc(b1-4)[Neu5Ac(a2-3)]Gal(b1-4)Glc
# In short: as §1
# [17] = molecular target: Neu5Ac(a2-8)Neu5Ac(a2-3)Gal(b1-3)GalNAc(b1-4)[Neu5Ac(a2-8)Neu5Ac(a2-3)]Gal(b1-4)Glc
# In short: as §1
# [18] = molecular target: Neu5Ac(a2-8)Neu5Ac(a2-3)Gal(b1-4)Glc
# In short: as §1
# [19] = molecular target: Neu5Ac(a2-8)Neu5Ac(a2-3)Gal(b1-4)GlcNAc
# In short: as §1
# [20] = molecular target: Neu5Ac(a2-8)Neu5Ac(a2-3)[Gal(b1-3)GalNAc(b1-4)]Gal(b1-4)Glc
# In short: as §1
# [21] = molecular target: Neu5Ac(a2-8)Neu5Ac(a2-3)[GalNAc(b1-4)]Gal(b1-4)Glc
# In short: as §1
# [22] = molecular target: Neu5Ac(a2-8)Neu5Ac(a2-8)Neu5Ac
# In short: as §1
# [23] = molecular target: Neu5Ac(a2-8)Neu5Ac(a2-8)Neu5Ac(a2-3)Gal(b1-4)Glc
# In short: as §1
# [24] = molecular target: Neu5Ac(a2-8)Neu5Ac(a2-8)Neu5Ac(a2-3)[Gal(b1-3)GalNAc(b1-4)]Gal(b1-4)Glc
# In short: as §1
# [25] = molecular target: Neu5Ac(a2-8)Neu5Ac(a2-8)Neu5Ac(a2-3)[GalNAc(b1-4)]Gal(b1-4)Glc
# In short: as §1
# [26] = molecular target: Neu5Ac(a2-8)Neu5Ac(a2-8)Neu5Ac(a2-8)Neu5Ac(a2-3)[GalNAc(b1-4)]Gal(b1-4)Glc
# In short: as §1
# [27] = molecular target: Neu5Ac(a2-8)Neu5Gc(a2-3)Gal(b1-4)GlcNAc
# In short: as §1
# [28] = molecular target: Neu5Ac(b2-6)Gal(b1-4)GlcNAc
# In short: as §1
# Neu5Ac(b2-6)GalNAc = molecular target: Neu5Ac(b2-6)GalNAc
# In short: as §1
# [29] = molecular target: Neu5Ac9Ac(a2-3)Gal(b1-3)GlcNAc
# In short: as §1
# [30] = molecular target: Neu5Ac9Ac(a2-3)Gal(b1-4)GlcNAc
# In short: as §1
# [31] = molecular target: Neu5Ac9Ac(a2-6)Gal(b1-4)GlcNAc
# In short: as §1
# [32] = molecular target: Neu5Gc(a2-3)Gal(b1-3)GlcNAc
# In short: as §1
# [33] = molecular target: Neu5Gc(a2-3)Gal(b1-3)[Fuc(a1-4)]GlcNAc
# In short: as §1
# Neu5Gc(a2-3)Gal(b1-4)Glc = molecular target: Neu5Gc(a2-3)Gal(b1-4)Glc
# In short: as §1
# [34] = molecular target: Neu5Gc(a2-3)Gal(b1-4)GlcNAc
# In short: as §1
# [35] = molecular target: Neu5Gc(a2-3)Gal(b1-4)GlcNAc(b1-3)Gal(b1-4)GlcNAc(b1-2)Man(a1-3)[Neu5Gc(a2-3)Gal(b1-4)GlcNAc(b1-3)Gal(b1-4)GlcNAc(b1-2)Man(a1-6)]Man(b1-4)GlcNAc(b1-4)GlcNAc
# In short: as §1
# [36] = molecular target: Neu5Gc(a2-3)Gal(b1-4)[Fuc(a1-3)]GlcNAc
# In short: as §1
# [37] = molecular target: Neu5Gc(a2-6)Gal(b1-4)GlcNAc
# In short: as §1
# Neu5Gc(a2-6)GalNAc = molecular target: Neu5Gc(a2-6)GalNAc
# In short: as §1
# [38] = molecular target: Neu5Gc(a2-8)Neu5Ac(a2-3)Gal(b1-4)GlcNAc
# In short: as §1
# [39] = molecular target: Neu5Gc(a2-8)Neu5Gc(a2-3)Gal(b1-4)GlcNAc
# In short: as §1
# [40] = molecular target: Neu5Gc(a2-8)Neu5Gc(a2-3)Gal(b1-4)GlcNAc(b1-3)Gal(b1-4)GlcNAc
# In short: as §1
# [41] = molecular target: Neu5Gc(a2-8)Neu5Gc(a2-6)Gal(b1-4)GlcNAc
# In short: as §1
# [42] = molecular target: Neu5Gc(b2-6)Gal(b1-4)GlcNAc
# In short: as §1
binder,measurement,setting,value
B1,glycan array binding signal (z-score),[1],-0.179
same,glycan array binding signal (z-score),[2],-0.193
same,glycan array binding signal (z-score),[3],-0.191
same,glycan array binding signal (z-score),[4],-0.194
same,glycan array binding signal (z-score),[5],-0.146
same,glycan array binding signal (z-score),[6],-0.19
same,glycan array binding signal (z-score),[7],-0.189
same,glycan array binding signal (z-score),[8],-0.193
same,glycan array binding signal (z-score),[9],-0.194
same,glycan array binding signal (z-score),[10],-0.192
same,glycan array binding signal (z-score),[11],-0.197
same,glycan array binding signal (z-score),Neu5Ac(a2-6)GalNAc,-0.192
same,glycan array binding signal (z-score),[12],-0.194
same,glycan array binding signal (z-score),[13],-0.194
same,glycan array binding signal (z-score),[14],-0.195
same,glycan array binding signal (z-score),[15],-0.194
same,glycan array binding signal (z-score),Neu5Ac(a2-8)Neu5Ac,-0.197
same,glycan array binding signal (z-score),[16],-0.191
same,glycan array binding signal (z-score),[17],-0.194
same,glycan array binding signal (z-score),[18],-0.197
same,glycan array binding signal (z-score),[19],-0.196
same,glycan array binding signal (z-score),[20],-0.193
same,glycan array binding signal (z-score),[21],-0.19
same,glycan array binding signal (z-score),[22],-0.192
same,glycan array binding signal (z-score),[23],-0.194
same,glycan array binding signal (z-score),[24],-0.193
same,glycan array binding signal (z-score),[25],-0.192
same,glycan array binding signal (z-score),[26],-0.189
same,glycan array binding signal (z-score),[27],-0.196
same,glycan array binding signal (z-score),[28],-0.197
same,glycan array binding signal (z-score),Neu5Ac(b2-6)GalNAc,-0.194
same,glycan array binding signal (z-score),[29],-0.193
same,glycan array binding signal (z-score),[30],-0.194
same,glycan array binding signal (z-score),[31],-0.193
same,glycan array binding signal (z-score),[32],-0.193
same,glycan array binding signal (z-score),[33],-0.18
same,glycan array binding signal (z-score),Neu5Gc(a2-3)Gal(b1-4)Glc,-0.195
same,glycan array binding signal (z-score),[34],-0.195
same,glycan array binding signal (z-score),[35],-0.187
same,glycan array binding signal (z-score),[36],-0.194
same,glycan array binding signal (z-score),[37],-0.188
same,glycan array binding signal (z-score),Neu5Gc(a2-6)GalNAc,-0.196
same,glycan array binding signal (z-score),[38],-0.194
same,glycan array binding signal (z-score),[39],-0.196
same,glycan array binding signal (z-score),[40],-0.195
same,glycan array binding signal (z-score),[41],-0.192
same,glycan array binding signal (z-score),[42],-0.193

# Reference: the supplement of paper PMC8728848
